Values joined by “and” are separate entries in the source; they are usually repeats but may differ in a detail not shown here. Identical values can stand only once. About 12,000 (3.5%) of roughly 340,000 compounds were called active. This list was built around the results that the source calls inconclusive (neither active nor inactive); the mix of calls is not that of the screen. Calls follow the shape of the dose curve; as a rule, active = well fitted inhibition curve with a large enough effect; inconclusive = small, poorly fitted or top-dose-only effect, or another doubt; inactive = no such curve, though single readings can be large or run the other way. A potency beside an inconclusive call is a rough fit, not a confirmed value.
test: qHTS Assay for Inhibitors of Hepatitis C Virus (HCV); conditions: Huh7.5.1 HCVcc-Cre (HCVcc is cell-culture hepatitis C virus) infection, luciferase reporter, 44 h; activity change, negative = inhibition: at 41.8 µM (top of the series) unless noted
Method in brief: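 Cells (1,000/well) were plated 4 h before compound, then infected with HCVcc-Cre virus (~0.5 moi). After 44 h further culture, infection was read as luciferase luminescence following a 15 min substrate incubation at room temperature.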
% is scaled to controls: 0 for no effect and ±100 for the full control effect; potency is read from the fitted curve at half-maximal effect; tags tell the direction and shape of the fitted curve.

Row | Structure (SMILES) | Potency | activity change, negative = inhibition
1 | Cc1ccc(C2CCN(C(=O)Nc3ccccc3)C2)cc1 (configuration not stated) | inconclusive: 14.1 µM [inhibitor, single point] | 
2 | COc1cccc(/C=C/C(=O)OCC(=O)N(C)CC(=O)Nc2ccccc2Cl)c1OC | inconclusive: 12.6 µM [inhibitor, single point] | 
3 | O=C(NC12CC3CC(CC(C3)C1)C2)c1ccc(N2CCNCC2)c([N+](=O)[O-])c1 | inconclusive: 14.1 µM [inhibitor, single point] | 
4 | CN(C)C(CNC(=O)c1cc(S(=O)(=O)N(C)Cc2ccccc2)ccc1Cl)c1ccco1 (configuration not stated) | inconclusive: 10 µM [inhibitor, partial curve] | 
5 | CC1CN(c2ncc(/C=N/NC(=O)c3ccccc3O)s2)CC(C)O1 (configuration not stated) |  | inactive: -18.6%
6 | O=C(Nc1ccc(OC(F)(F)F)cc1)c1ccc(S(=O)(=O)N2CCOCC2)o1 | inconclusive: 31.6 µM [inhibitor, single point] | 
7 | c1ccc(Cn2nnc3c(N4CCCCCC4)ncnc32)cc1 |  | inactive: -24.4%
8 | O=C(N/N=C/c1ccc([N+](=O)[O-])cc1)c1cccc2cc[nH]c12 |  | inactive: 6.08%
9 | O=C(NNS(=O)(=O)c1ccc(F)cc1)C1CC(c2cccnc2)=NO1 (configuration not stated) |  | inactive: 10.4%
10 | CN1CC[C@@]2(C)c3cc(O)ccc3N(C)[C@@H]12 | inactive and inconclusive: 8.91 µM [inhibitor, partial curve, poor fit] | 
11 | Cc1cc(C)c(C)c(S(=O)(=O)Nc2ccc3cn[nH]c3c2)c1C | active: 12.6 µM | 
12 | COC(=O)C1=C(c2c(C)noc2C)C[C@@H]2CC[C@H]1N2C(=O)NCc1ccc(C(F)(F)F)cc1 | inconclusive: 3.98 µM [inhibitor, partial curve] | 
13 | COc1ccc(-c2nc(C#N)c(NCc3ccccc3Cl)o2)cc1 |  | inactive: -17.8%
14 | COc1ccc(-c2cc(=O)oc3cc(OC(C)C(=O)Nc4ccc(CN5CCOCC5)cc4)ccc23)cc1 (configuration not stated) | inconclusive: 8.91 µM [inhibitor, partial curve] | 
15 | Cc1cc(Cl)ccc1NC(=O)CSc1n[nH]c(N)n1 |  | inactive: 1.07%
16 | C/C(=N\Nc1nc(N)cc(Cl)n1)c1ccc(Cl)c(Cl)c1 | active: 11.2 µM | 
17 | CCCCC(NC(=O)c1ccccc1)C(=O)OCC(=O)N1c2ccccc2Sc2ccccc21 (configuration not stated) | inconclusive: 10 µM [inhibitor, partial curve] | 
18 | CCc1ccccc1NC(=O)CN(C)C(=O)CSc1nn(-c2ccc(F)cc2)c(=S)s1 | inconclusive: 2.82 µM [inhibitor, single point] | 
19 | O=[N+]([O-])c1cccc(N/N=C/c2cccc3ccccc23)c1 | inconclusive: 22.4 µM [inhibitor, single point] | 
20 | N#C/C(=N\Nc1ccccc1F)c1nc(-c2ccccc2)cs1 | inconclusive: 2.51 µM [inhibitor, full curve, poor fit] | 
21 | COc1ccc(CCNC(=O)c2nnn(-c3ccc4c(c3)OCCO4)c2N)cc1OC | inconclusive: 11.2 µM [inhibitor, partial curve] | 
22 | CCc1nnc(SCC(=O)Nc2ccccc2Cl)nc1CC | inconclusive: 31.6 µM [inhibitor, single point] | 
23 | CN(CC(=O)NC1CCN(Cc2ccccc2)CC1)S(=O)(=O)c1ccc(Cl)s1 | inconclusive: 31.6 µM [inhibitor, single point] | 

Row | Structure (SMILES) | Potency | activity change, negative = inhibition
24 | COc1ccc(OC)c(/C=C/c2ccnc3ccccc23)c1 | inconclusive: 12.6 µM [inhibitor, single point] | 
25 | Cc1ccnc(NC(=O)CCc2c[nH]c3ccccc23)c1 | inconclusive: 11.2 µM [inhibitor, single point] | 
26 | CC(C)CC(NC(=O)CCCNC(=O)CCC(=O)OC1O[C@H]2OC3(C)CC[C@H]4[C@H](C)CCC(C1C)C24OO3)C(=O)O (some centres not stated) | inconclusive: 2.51 µM [inhibitor, full curve] | 
27 | Cc1ccc(NC(=O)Cn2c(O)c(N=NC(N)=S)c3ccccc32)cc1 | inconclusive: 31.6 µM [inhibitor, single point] | 
28 | O=C(NCc1ccco1)c1cc2sccc2n1Cc1ccc(F)cc1 | inconclusive: 31.6 µM [inhibitor, single point] | 
29 | CC(C)[C@H](NC(=O)c1ccco1)C(=O)OCC(=O)c1ccc(Br)s1 |  | inactive: -24.9%
30 | COC(=O)/C(=C\c1ccc(O)cc1)c1nc2ccccc2[nH]1 |  | inactive: -8.51%
31 | CCCn1nc(C(=O)Nc2cccc(C(=O)OC)c2)c2ccccc2c1=O | inconclusive: 8.91 µM [inhibitor, partial curve] | 
32 | O=C(Nc1ccccc1)C1=C[C@@H](C2CCCCC2)C[C@@H](OCCCCO)O1 | active: 0.316 µM | 
33 | CCNC(=O)N1CCCC(C(=O)c2ccc(-c3ccccc3)cc2)C1 (configuration not stated) | inconclusive: 10 µM [inhibitor, single point] | 
34 | CCOC(=O)c1[nH]c(COC(=O)C2CC(=O)N(Cc3ccccc3)C2)c(C(=O)OCC)c1C (configuration not stated) | inconclusive: 31.6 µM [inhibitor, single point] | 
35 | Cc1nonc1C1CCCN1C(=O)c1cc(COc2cccc(C(F)(F)F)c2)on1 (configuration not stated) | inconclusive: 22.4 µM [inhibitor, single point] | 
36 | COc1ccc(-n2c(SCC(=O)Nc3ccc([N+](=O)[O-])cc3OC)nc3ccccc32)cc1 | inconclusive: 3.55 µM [inhibitor, single point] | 
37 | COc1ccccc1CNC(=O)CSc1ccc(-c2cccs2)nn1 |  | inactive: 24.3%
38 | O=C(CCC(=O)N1CCN(Cc2ccc(F)cc2)CC1)Nc1nnc(C2CCCCC2)s1 | inconclusive: 31.6 µM [inhibitor, single point] | 
39 | O=C(NCc1ccc(Cl)cc1)c1ccc2c(=O)n(CC3CCCO3)c(=S)[nH]c2c1 (configuration not stated) | inconclusive: 7.94 µM [inhibitor, partial curve] | 
40 | O=C(Nc1cc(NC(=O)c2ccccc2F)ccc1Cl)c1ccccc1 | inconclusive: 25.1 µM [inhibitor, single point] | 
41 | CC(=O)c1ccc(NC(=O)Cc2cccs2)cc1 |  | inactive: 10.8%
42 | O=C(/C=C/c1cccc([N+](=O)[O-])c1)Nc1ccc(NC(=O)c2cccs2)cc1 |  | inactive: 9.99%
43 | CCCN(CCC)c1nc(Cl)nc(NCCN2CCOCC2)n1 | active: 14.1 µM | 
44 | O=C(N/N=C/c1ccccc1OC(=O)c1ccc2c(c1)OCO2)c1cccc(F)c1 | inconclusive: 31.6 µM [inhibitor, single point] | 
45 | Cc1csc(C(C)N(C)C(=O)c2ccc(OC3CCN(Cc4ccccn4)CC3)cc2)n1 (configuration not stated) | inconclusive: 22.4 µM [inhibitor, single point] | 
46 | O=C(C1CCN(S(=O)(=O)c2cccc3nsnc23)CC1)N1CCc2ccccc21 | inconclusive: 7.94 µM [inhibitor, partial curve] | 

Row | Structure (SMILES) | Potency | activity change, negative = inhibition
47 | Cc1cc(NC(=O)CN(C)CC(=O)Nc2ccc(Cl)c(C(F)(F)F)c2)no1 | inconclusive: 11.2 µM [inhibitor, single point] | 
48 | Cc1ccc(-n2ccc(=O)c(-c3ccnc(SCc4cccc(Cl)c4)n3)n2)cc1 | inconclusive: 11.2 µM [inhibitor, single point] | 
49 | COc1ccc(OC)c(NC(=O)Nc2cc(NC(=O)Nc3cc(OC)ccc3OC)c(C)nc2C)c1 | inconclusive: 0.562 µM [inhibitor, full curve, poor fit] | 
50 | O=C(NC1CCCCC1)C(c1cccs1)N(Cc1cccs1)C(=O)c1cccs1 (configuration not stated) | inconclusive: 31.6 µM [inhibitor, single point] | 
51 | Cc1ccc2nc(N(CCCN(C)C)C(=O)c3ccc(S(=O)(=O)N4CCc5ccccc5C4)cc3)sc2c1 | inconclusive: 28.2 µM [inhibitor, single point] | 
52 | O=C1OCc2cc(-n3cccc3)ccc21 | inconclusive: 31.6 µM [inhibitor, single point] | 
53 | O=c1c(-c2ccco2)[n+]([O-])c2ccccc2n1OCc1ccccc1F |  | inactive: -7.2%
54 | O=C(c1ccc(S(=O)(=O)NCc2ccco2)cc1)N1CCN(Cc2ccccc2)CC1 | inconclusive: 4.47 µM [inhibitor, single point] | 
55 | CCCNC(=O)N1[C@H]2CC[C@@H]1C(C(=O)OC)=C(c1ccc(-c3ccccc3)c(F)c1)C2 | active: 7.94 µM | 
56 | Cc1ccccc1SCC(=O)NNC(=O)c1ccncc1 |  | inactive: 1.58%
57 | COC(=O)c1cc(COC(=O)CNC(=O)c2ccc(Br)cc2)oc1C |  | inactive: 12.8%
58 | CCN(c1ccccc1)S(=O)(=O)c1cccc(C(=O)Nc2ccc(C)cn2)c1 | inconclusive: 31.6 µM [inhibitor, single point] | 
59 | c1coc(-c2nc3ccccc3nc2-c2ccco2)c1 |  | inactive: -18.2%
60 | O=C(NN=C(Cc1ccccc1)Cc1ccccc1)c1ccc(F)cc1 |  | inactive: -0.259%
61 | O=C(CCCSc1nc2ccccc2s1)NCc1ccco1 |  | inactive: 2.28%
62 | CCOC(=O)C1CCN(S(=O)(=O)c2ccc3c(c2)CC(C)N3C(=O)C2CCC2)CC1 (configuration not stated) | inconclusive: 31.6 µM [inhibitor, single point] | 
63 | COc1ccccc1N1CCN(c2ccc([N+](=O)[O-])cc2Cl)CC1 | inconclusive: 11.2 µM [inhibitor, partial curve, poor fit] | 
64 | CCN(CC)CCC(=O)Nc1ccc2c(c1)N(C(=O)CN(CC)CC)c1ccccc1CC2 | inconclusive: 12.6 µM [inhibitor, partial curve] | 
65 | COc1cc(C)c(NC(=S)Nc2cccc(Cl)c2C)cc1OC |  | inactive: 5.82%
66 | N/C(Cc1ccc([N+](=O)[O-])cc1)=N\OC(=O)c1ccc([N+](=O)[O-])cc1 | inconclusive: 12.6 µM [inhibitor, partial curve, poor fit] | 
67 | COc1cc(CNc2ccc(N3CCOCC3)cc2)ccc1OCC(=O)NC(C)(C)C | inconclusive: 10 µM [inhibitor, partial curve] | 
